The other results are listed elsewhere or left out. One pool of 16,384 single-stranded DNAs met each Rep nickase domain in vitro (1 h at 37 °C, 3 µM enzyme); the outer parts of the 90-letter strands are left off. Values are log2 of uncut reads against the no-enzyme pool; the lower, the more was cut; hits are not called. Reads are scaled to the total; uncut strands gain when others are lost, and binding without cutting may add a little.
Each sequence was assayed on T1, Rep nickase domain of tomato golden mosaic virus (assay: uncleaved DNA left, log2 of reads against the no-enzyme library (log2 ratio); higher = less cleavage (more negative = more Rep cleavage of the k-mer); sequences stand for … in CTCGTCCG…ACCGGAGA).
T1 sequence (Rep 1-124, printed without the tag): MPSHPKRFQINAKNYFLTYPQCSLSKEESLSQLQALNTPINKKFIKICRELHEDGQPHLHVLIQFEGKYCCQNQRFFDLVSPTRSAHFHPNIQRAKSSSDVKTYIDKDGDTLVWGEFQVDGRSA
Method: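 A pool of 90-nt single-stranded DNAs with seven random bases just before the constant AC of the nick site (name = the seven bases) was cut by 3 µM recombinant His6-SUMO-tagged Rep nickase domain (300 nM DNA, 50 mM HEPES pH 8.0, 50 mM NaCl, 1 mM MnCl2, 1 h, 37 °C, three replicates). Uncut DNA was amplified and sequenced.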

Sequence | uncleaved DNA left (log2)
TGAGAAA | 0.226
ACTGTTA | 0.0156
CCTACGT | -0.00728
CACAGGA | 0.115
AGAATCA | 0.0616
ATCTTTT | -0.235
GTTAAGA | 0.079
AGATTGG | -0.00608
AAAGCGG | 0.223
TGCAAGT | 0.0337
CGCCGCT | -0.0653
GCGCGTA | 0.00683
AAAGGCG | 0.0138
CAGGATA | 0.188
TGAGGGA | 0.113
CATTATG | 0.021
CCGACGT | 0.0174
ATACGAT | -0.00145
AGTGACG | 0.0684
ATATCTT | -0.372

Sequence | uncleaved DNA left (log2)
CTAGGTC | -0.00743
TTTAGGA | 0.104
GCTATCT | 0.0578
GTATGGT | 0.0702
AAATTAG | 0.114
GCTCGCT | 0.153
CATTCGA | -0.116
AGAGGTT | 0.0682
CTAGCGA | -0.0489
GACTGTA | 0.0311
ACGGATA | 0.0465
CGACATT | -0.326
ACACACC | -0.086
CAGTCTA | -0.129
GTGGGCA | 0.133
TATTCCT | -0.223
GCCCCCT | -0.0249
GATAACG | 0.0666
TAACTCA | -0.122
CAAGCAA | -0.00452

Reference: the supplement of paper PMC7826260
